# Results: the supplement of paper PMC3334620
# The full ranking holds about 33,000 sequences; the median of “E-score (-0.5 to 0.5)” is about -0.011, and the highest 2% start at about 0.28. The list shows a part of the results.
# Molecular target: T1, Gcr1 (UniProt P07261)
# T1 sequence: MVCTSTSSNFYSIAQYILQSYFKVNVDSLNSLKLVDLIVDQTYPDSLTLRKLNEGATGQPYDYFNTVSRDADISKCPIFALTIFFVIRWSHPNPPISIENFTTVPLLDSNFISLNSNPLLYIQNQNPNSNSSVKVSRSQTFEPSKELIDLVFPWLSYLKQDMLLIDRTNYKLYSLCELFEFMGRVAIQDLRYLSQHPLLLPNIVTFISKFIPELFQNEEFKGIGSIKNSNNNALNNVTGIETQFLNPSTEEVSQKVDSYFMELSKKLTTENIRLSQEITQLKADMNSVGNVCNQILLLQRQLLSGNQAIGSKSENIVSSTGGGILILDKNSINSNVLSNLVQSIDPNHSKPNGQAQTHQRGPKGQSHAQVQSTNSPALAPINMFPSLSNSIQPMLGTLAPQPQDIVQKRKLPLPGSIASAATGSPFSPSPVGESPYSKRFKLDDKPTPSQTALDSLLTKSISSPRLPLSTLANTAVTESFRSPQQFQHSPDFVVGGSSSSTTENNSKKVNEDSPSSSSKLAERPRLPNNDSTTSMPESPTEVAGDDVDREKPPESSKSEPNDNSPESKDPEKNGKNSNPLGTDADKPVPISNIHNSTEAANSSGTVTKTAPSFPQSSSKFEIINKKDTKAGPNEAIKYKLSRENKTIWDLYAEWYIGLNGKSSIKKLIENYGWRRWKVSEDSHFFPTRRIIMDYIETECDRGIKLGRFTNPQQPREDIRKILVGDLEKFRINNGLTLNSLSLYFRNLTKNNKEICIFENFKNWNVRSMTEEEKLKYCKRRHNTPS
# Test: PBM E-score (8-mer binding enrichment) (E-score (-0.5 to 0.5)); higher = stronger / more preferred TF binding; most listed sequences are background and not binding sites
# Conditions: protein concentration: 100 nM; construct: GST-full length
# Method in brief: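 Yeast transcription factors carrying a GST tag, as full-length proteins or DNA-binding domains, were produced by PURExpress in vitro transcription/translation. About 100-200 nM protein was applied to universal all-10-mer Agilent arrays, double-stranded by primer extension on fresh or once-stripped slides. Bound protein was detected with fluorescent anti-GST, and scans were normalised with masliner. The Universal PBM Analysis Suite gave each ungapped eight-base word, pooled with its reverse complement, an E-score, a modified Wilcoxon-Mann-Whitney statistic.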
row,Sequence,PBM E-score
1,GGCCACAA,0.176
2,CGAAGCCC,0.268
3,AAGCAGTG,-0.14
4,ATATGAGG,0.033
5,ATTGTCGC,-0.0817
6,CGCGCGTC,0.122
7,CGCAGCGA,0.22
8,CTAAGCTA,-0.202
9,AAGTCACC,-0.11
10,CTTCCTCC,0.189
11,AGGTTCAG,-0.265
12,CTTAAAAA,0.199
13,AACGCGTG,0.139
14,GGAGCTGA,0.068
15,ACTGCTCC,-0.115
16,AGTCGGGC,-0.0557
17,ACCAACCC,-0.294
18,CGCTCCCG,0.0567
19,CTGTGCCA,-0.106
20,CATGGACG,0.0664
21,CGCGCCGC,0.193
22,AGAATTAT,0.0729
23,ACAGCTGA,-0.195
24,ACGTCGGA,-0.0789
25,CGAAATCG,-0.0258

row,Sequence,PBM E-score
1,CTGAACAA,0.0728
2,CTTAGATC,0.0158
3,GGATCGGA,-0.0291
4,GAATGGAA,0.225
5,TGCAAGAA,0.152
6,CCTCCGAG,-0.26
7,CCAGAGGA,0.101
8,AAATCAGG,0.129
9,ACACGAGG,-0.00485
10,CCGAACGC,0.149
11,GATGGTCA,-0.0592
12,AAGGGTAA,-0.0838
13,ATATAAGC,0.121
14,TAATGGGA,0.108
15,ACATGCTC,-0.0853
16,TAGCAGCA,0.136
17,CCGACGCG,0.0251
18,TCATCCGA,-0.166
19,ACGATATA,0.0445
20,CACAGAAG,0.0109
21,CCTCCAAC,-0.0666
22,GGCAAAAC,-0.0284
23,CACGAAAC,-0.073
24,CCGTGCCA,-0.0133
25,GCTGGTGA,-0.0692

row,Sequence,PBM E-score
1,CCTAAGCG,-0.102
2,GCGACCTA,0.116
3,AGGACAAC,-0.0833
4,GCAATACC,-0.0958
5,TCTATTAA,0.185
6,AGTCCAAG,-0.147
7,GGAAAGAC,-0.105
8,GAAATTTA,-0.1
9,ATAAAAGG,0.126
10,CTACTACA,0.137
11,GAATTATA,0.192
12,ACTATGAG,-0.239
13,CGATTGAG,-0.208
14,CAACAGTG,0.0107
15,ACACCCCA,0.00448
16,ATCCTCCA,-0.0323
17,TCTGTTCA,0.00349
18,CTATAGGA,0.0459
19,ACGACTAC,-0.176
20,GCTGTGAC,-0.186
21,ACCACGGC,-0.0133
22,CGTTCGAG,-0.0773
23,AGGAGTCA,-0.0283
24,CGACGACA,0.0156
25,GGAAGAAC,-0.156

row,Sequence,PBM E-score
1,AATGTCGA,0.144
2,AGTGTCGA,-0.106
3,GCATTGTA,-0.0559
4,GACTTATA,0.0402
5,ATCTCGGA,0.0205
6,ACACTACG,-0.104
7,CAATTGTC,-0.307
8,ACCCACGG,-0.122
9,AGGTTGTA,-0.0436
10,CCGCCTCG,0.0287
11,ACGTGGCA,-0.0193
12,AAATGCGA,0.224
13,TTCATAAA,0.0264
14,GGCGACGA,0.0858
15,CGGGCTTC,0.415
16,ACAGGAAC,0.144
17,CACGAGTG,-0.109
18,GAAATAAC,0.0241
19,AACAGTGC,-0.142
20,GAGACAAA,-0.101
21,CTTAATAA,0.224
22,ACGGCTAA,0.00728
23,GCAGTCGA,-0.026
24,CGCGCCCA,0.244
25,TAACTTAA,0.0035

row,Sequence,PBM E-score
1,TATCAACA,0.0417
2,GGCGGTGA,-0.113
3,ACCTTTAC,0.0646
4,CTCAAAGA,0.0324
5,ATATGCAT,-0.0625
6,GTATAGTA,-0.141
7,CAGGTCCC,0.0086
8,AGCACATG,-0.0122
9,AGAGTGTC,-0.0239
10,ACAGAAAG,-0.135
11,CAAGGACA,-0.161
12,AACAACAG,-0.236
13,ATATCTTG,0.0748
14,GGGCACTA,-0.00334
15,ACTATAAA,0.0982
16,AATCGACG,-0.231
17,GAATATAC,-0.236
18,CGATTGGA,0.135
19,GTCGTCAA,0.149
20,AGTTCAGC,-0.0738
21,ATGAAGTA,-0.106
22,TAAAAATA,0.24
23,AATCTCGT,0.00556
24,CCTCACAA,-0.0108
25,ATATGGAA,0.128

row,Sequence,PBM E-score
1,CGTCAAAA,0.185
2,GTGGTAAC,-0.0653
3,AGCGCTTG,0.0346
4,ACCGGACG,0.32
5,AAGAATGC,0.0371
6,CGTATTGA,0.0279
7,ACCCTCCG,-0.333
8,CATAGTCG,-0.031
9,CTGGTAGC,0.217
10,AAGGGAAC,0.0126
11,ACGGCCGT,-0.031
12,GGACCGAA,0.0294
13,ATCTAAGA,0.235
14,ACGTAACA,-0.0832
15,CGCAATAA,0.0471
16,CATAACGA,0.00907
17,TAGTGCAA,-0.0738
18,CTTGCGGA,0.0331
19,ATGTGTGC,-0.153
20,AACTACGT,-0.0547
21,GTTAGCCA,-0.0554
22,ACATATAA,-0.0176
23,ATGACAGA,-0.0106
24,ATTACAGG,0.355
25,GGGGCCAC,0.12

row,Sequence,PBM E-score
1,ATTCGAAA,0.0901
2,AGTTGGTC,0.0716
3,GCCGGCAC,0.0716
4,GGATGCAC,0.0822
5,ATTATACA,0.0559
6,CCGAACCG,-0.0578
7,AGCGACAT,0.158
8,AAAACGAT,0.057
9,CAAGGAGA,-0.0625
10,CTTAAGTC,-0.00814
11,GAGGGACC,-0.0798
12,CAAATCGC,-0.211
13,CAACAGCG,0.02
14,CGGAGGAG,-0.374
15,ACGCTCGG,-0.116
16,AACGCCCT,-0.026
17,TGAGTACA,0.0864
18,ATAAGCAA,-0.0154
19,ATGCGGTG,-0.0428
20,CCTTGAAA,0.0516
21,GAACCATA,0.1
22,TGAGACAA,-0.0715
